According to paper PMC4336329 (PLoS ONE, 2015):
Among all 310,000 compounds or so, about 2,200 (0.71%) showed an effect of 50% or more. Effects have a minus sign here. This is one part of the list.

These compounds were tested against human ether-à-go-go-related gene (hERG) potassium channel (human, UniProt Q12809) (assay: primary screen, population patch clamp on CHO cells stably expressing hERG).
Sequence of human ether-à-go-go-related gene (hERG) potassium channel (Q12809 whole entry, looked up): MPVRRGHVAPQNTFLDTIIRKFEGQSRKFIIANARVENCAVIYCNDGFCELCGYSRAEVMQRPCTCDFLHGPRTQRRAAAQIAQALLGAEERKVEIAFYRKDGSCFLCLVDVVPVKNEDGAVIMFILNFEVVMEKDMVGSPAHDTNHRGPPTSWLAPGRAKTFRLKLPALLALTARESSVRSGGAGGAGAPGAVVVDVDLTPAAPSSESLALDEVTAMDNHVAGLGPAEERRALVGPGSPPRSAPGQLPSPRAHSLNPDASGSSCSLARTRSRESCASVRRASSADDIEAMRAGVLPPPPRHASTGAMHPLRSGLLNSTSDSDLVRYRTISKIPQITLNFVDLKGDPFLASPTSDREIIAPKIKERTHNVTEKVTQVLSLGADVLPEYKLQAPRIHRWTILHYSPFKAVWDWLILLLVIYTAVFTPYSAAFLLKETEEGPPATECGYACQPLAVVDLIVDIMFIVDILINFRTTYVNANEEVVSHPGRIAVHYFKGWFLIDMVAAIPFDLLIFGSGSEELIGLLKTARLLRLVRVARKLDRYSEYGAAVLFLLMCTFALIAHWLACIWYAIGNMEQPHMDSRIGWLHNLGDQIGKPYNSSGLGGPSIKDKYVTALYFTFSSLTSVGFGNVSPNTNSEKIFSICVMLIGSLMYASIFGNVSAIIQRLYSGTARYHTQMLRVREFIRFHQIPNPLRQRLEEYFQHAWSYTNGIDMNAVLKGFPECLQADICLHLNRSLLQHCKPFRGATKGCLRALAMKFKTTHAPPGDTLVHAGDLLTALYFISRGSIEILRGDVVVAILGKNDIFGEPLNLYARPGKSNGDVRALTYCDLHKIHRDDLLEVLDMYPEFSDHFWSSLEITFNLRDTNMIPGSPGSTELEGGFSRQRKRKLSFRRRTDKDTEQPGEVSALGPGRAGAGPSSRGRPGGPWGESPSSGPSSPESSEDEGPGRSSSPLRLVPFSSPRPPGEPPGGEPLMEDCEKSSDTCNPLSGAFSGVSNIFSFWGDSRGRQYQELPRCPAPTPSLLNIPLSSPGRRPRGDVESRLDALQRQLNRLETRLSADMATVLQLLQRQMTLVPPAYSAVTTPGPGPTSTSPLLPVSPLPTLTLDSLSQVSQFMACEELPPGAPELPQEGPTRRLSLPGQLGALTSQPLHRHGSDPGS

**Q.** How did the “hERG current change (%, negative = inhibition) at 1uM” value turn out when `O=C(O)CC1(CC(=O)Nc2ccc3ccccc3n2)CCCCC1` was run?
**A.** The value was 15.2%.

**Q.** With `N#Cc1c(-c2ccccc2)cc(-c2ccccc2)nc1SCc1nnc(-c2ccccc2)o1` as the compound, how does the “hERG current change (%, negative = inhibition) at 1uM” value read?
**A.** The value was 12.2%.

**Q.** Which “hERG current change (%, negative = inhibition) at 1uM” value does the source give for `COc1ccccc1C(=O)Oc1cc(N)n(S(=O)(=O)c2ccccc2)n1` here?
**A.** Its value is 11.1%.

**Q.** With `Cc1ccc(-c2csc3ncnc(SCc4ccc(C(=O)O)cc4)c23)cc1` as the compound, how does the “hERG current change (%, negative = inhibition) at 1uM” value read?
**A.** The value was -2.34%.

**Q.** With `c1cncc(-c2cn(C[C@H]3CC[C@@H]([C@@H]4CC[C@H](Cn5cc(-c6cccnc6)nn5)O4)O3)nn2)c1` as the compound, how does the “hERG current change (%, negative = inhibition) at 1uM” value read?
**A.** The value was -17.7%.

**Q.** For `Cc1ccc(Nc2ccc(C(=O)O)cc2[N+](=O)[O-])cc1`, which “hERG current change (%, negative = inhibition) at 1uM” value is on record?
**A.** Its value is 10.5%.

**Q.** `CCc1nc2c(c(=O)c3ccccc3n2C)c(=O)n1-c1ccc(F)cc1` was tested. Which “hERG current change (%, negative = inhibition) at 1uM” value did it give?
**A.** Its value is 8.24%.

**Q.** For `COCCN(C(=O)CCC(=O)Nc1nccs1)C(C(=O)NCCC(C)C)c1ccc(F)cc1` (stereo not drawn), which “hERG current change (%, negative = inhibition) at 1uM” value is on record?
**A.** Its value is -2.01%.

**Q.** With `CCOC(=O)N1CCN(S(=O)(=O)c2c(C)cc(C)cc2C)CC1` as the compound, how does the “hERG current change (%, negative = inhibition) at 1uM” value read?
**A.** The value was 4.19%.

**Q.** With `CC1CC(C)CN(Cc2nc3c(c(=O)n(C)c(=O)n3C)n2CCN2CCOCC2)C1` (stereo not drawn) as the compound, how does the “hERG current change (%, negative = inhibition) at 1uM” value read?
**A.** Its value is 3.67%.

**Q.** `Cc1csc(=O)n1CCC(=O)OCC(=O)c1c(N)n(CC(C)C)c(=O)n(C)c1=O` was tested. Which “hERG current change (%, negative = inhibition) at 1uM” value did it give?
**A.** Its value is 15.8%.

**Q.** For `O=C(NCCCN1CCCC1)c1ccc(Cn2c(=S)[nH]c3ccc(Br)cc3c2=O)cc1`, which “hERG current change (%, negative = inhibition) at 1uM” value is on record?
**A.** Its value is 19.5%.

**Q.** Which “hERG current change (%, negative = inhibition) at 1uM” value does the source give for `CC1C(c2ccccc2)=NNc2nc3c(c(=O)n(C)c(=O)n3C)n21` (stereo not drawn) here?
**A.** The value was 10.8%.

**Q.** How did the “hERG current change (%, negative = inhibition) at 1uM” value turn out when `O=C(CSc1ccc([N+](=O)[O-])cn1)Nc1ccc2[nH]c(=O)[nH]c2c1` was run?
**A.** The value was 13.1%.

**Q.** With `COc1cccc(-c2nnn(CC(=O)N(CC(C)C)C3CCS(=O)(=O)C3)n2)c1` (stereo not drawn) as the compound, how does the “hERG current change (%, negative = inhibition) at 1uM” value read?
**A.** The value was 3.74%.

**Q.** How did the “hERG current change (%, negative = inhibition) at 1uM” value turn out when `O=C(CCc1nnc2n(Cc3ccc(F)cc3)c(=O)c3ccccc3n12)N1CCN(c2ccccn2)CC1` was run?
**A.** The value was -33.7%.

**Q.** With `CCOC(=O)c1c(C)[nH]c(C)c1S(=O)(=O)N(C)CC(=O)Nc1ccc(C)cn1` as the compound, how does the “hERG current change (%, negative = inhibition) at 1uM” value read?
**A.** The value was 6.69%.

**Q.** Which “hERG current change (%, negative = inhibition) at 1uM” value does the source give for `C=CCn1c(SCCN2C(=O)c3ccccc3C2=O)nc2scc(-c3ccccc3)c2c1=O` here?
**A.** Its value is 1.5%.

**Q.** Which “hERG current change (%, negative = inhibition) at 1uM” value does the source give for `CC(C)(C)OC(=O)N1CCC(c2c(C(=O)N3CCN(C(=O)c4ccco4)CC3)cnn2-c2ccc(F)cc2F)CC1` here?
**A.** The value was 3.08%.

**Q.** With `CC(C)(C)c1nc[nH]c(=O)c1Br` as the compound, how does the “hERG current change (%, negative = inhibition) at 1uM” value read?
**A.** The value was 15.2%.

**Q.** `Cc1ccc(-n2nnc3c(=O)n(CC(=O)NCC4CCCO4)cnc32)cc1` (stereo not drawn) was tested. Which “hERG current change (%, negative = inhibition) at 1uM” value did it give?
**A.** Its value is 5.51%.

**Q.** For `CN1CCN(c2ccc(NC(=O)CN3CCOCC3)cc2F)CC1`, which “hERG current change (%, negative = inhibition) at 1uM” value is on record?
**A.** The value was 14.5%.

**Q.** For `CCOc1ccccc1-c1nc(-c2ccc(NC(=O)Cc3ccccc3OC)cc2)no1`, which “hERG current change (%, negative = inhibition) at 1uM” value is on record?
**A.** Its value is 17.1%.

**Q.** How did the “hERG current change (%, negative = inhibition) at 1uM” value turn out when `CC1=C(C(=O)OCC(C)C)C(c2ccc(Br)s2)NC(=O)N1` (stereo not drawn) was run?
**A.** The value was 12.2%.

**Q.** `C=CC[N+](C)(C)c1ccc(CCC(=O)CCc2ccc([N+](C)(C)CC=C)cc2)cc1.[Br-]` was tested. Which “hERG current change (%, negative = inhibition) at 1uM” value did it give?
**A.** Its value is 7.44%.

**Q.** How did the “hERG current change (%, negative = inhibition) at 1uM” value turn out when `Cc1ccc(C(=O)Nc2ccc3c(c2)OCCO3)c(Cl)c1` was run?
**A.** Its value is 15.9%.

**Q.** `CC(C)(C)NC(=O)C(c1ccc(F)cc1)N(CC1CCCO1)C(=O)CCC(=O)Nc1ccccn1` (stereo not drawn) was tested. Which “hERG current change (%, negative = inhibition) at 1uM” value did it give?
**A.** Its value is 7.36%.

**Q.** How did the “hERG current change (%, negative = inhibition) at 1uM” value turn out when `CCCCOc1ccc(C(=O)N/C(=C\c2cccc([N+](=O)[O-])c2)C(=O)OCCC)cc1` was run?
**A.** Its value is 16.1%.

**Q.** How did the “hERG current change (%, negative = inhibition) at 1uM” value turn out when `O=C(N/N=C/c1ccccc1O)/C(=C/c1ccccc1)CCO` was run?
**A.** The value was -0.633%.

**Q.** For `C=CCN1C(=O)CSC1=Nc1ccc(C(=O)O)cc1`, which “hERG current change (%, negative = inhibition) at 1uM” value is on record?
**A.** Its value is 13.4%.

**Q.** With `O=C(O)c1cc(-c2cc3ccccc3o2)nn1-c1ccccc1` as the compound, how does the “hERG current change (%, negative = inhibition) at 1uM” value read?
**A.** The value was 12.9%.

**Q.** For `COc1ccc2[nH]c(=O)c(-c3nnn(-c4ccc(Cl)c(Cl)c4)n3)cc2c1`, which “hERG current change (%, negative = inhibition) at 1uM” value is on record?
**A.** The value was 14.6%.

**Q.** With `Cc1ccccc1CN(C)C(=O)CNC(=O)c1ccc2ccccc2c1` as the compound, how does the “hERG current change (%, negative = inhibition) at 1uM” value read?
**A.** Its value is 7.66%.

**Q.** Which “hERG current change (%, negative = inhibition) at 1uM” value does the source give for `COc1ccc(C(=O)c2ccc(Br)cc2)cc1` here?
**A.** The value was 5.65%.

**Q.** With `Cc1nc(Oc2cccc(Cl)c2)c2oc3ccccc3c2n1` as the compound, how does the “hERG current change (%, negative = inhibition) at 1uM” value read?
**A.** The value was 13.4%.

**Q.** With `O=C(NCc1ccc(CNC(=O)c2ccco2)cc1)c1ccco1` as the compound, how does the “hERG current change (%, negative = inhibition) at 1uM” value read?
**A.** The value was 16.1%.

**Q.** `CC(C)NC(=O)c1cnn2c1NC(c1cccs1)CC2C(F)(F)F` (stereo not drawn) was tested. Which “hERG current change (%, negative = inhibition) at 1uM” value did it give?
**A.** Its value is 12.7%.

**Q.** How did the “hERG current change (%, negative = inhibition) at 1uM” value turn out when `O=C(OCc1ccco1)c1ccc(S(=O)(=O)N2CCCCC2)cc1` was run?
**A.** Its value is 5.76%.

**Q.** Which “hERG current change (%, negative = inhibition) at 1uM” value does the source give for `COc1cc2c(cc1OC)C(COc1ccc(F)cc1)N(C(=O)c1ccco1)CC2` (stereo not drawn) here?
**A.** The value was -3.29%.

**Q.** How did the “hERG current change (%, negative = inhibition) at 1uM” value turn out when `CC1CCN(C(=O)CSc2nnc(-c3cccs3)o2)CC1` was run?
**A.** Its value is 3.3%.

**Q.** With `CN(C(=O)Nc1ccc(S(=O)(=O)N(C)C)cc1)C1CCCCC1` as the compound, how does the “hERG current change (%, negative = inhibition) at 1uM” value read?
**A.** Its value is 11.9%.

**Q.** How did the “hERG current change (%, negative = inhibition) at 1uM” value turn out when `CCC(=O)c1ccc(OCC(=O)OCC(=O)NC2CCCC2)cc1` was run?
**A.** Its value is 14.5%.

**Q.** With `Cc1ccc(C)c(NC(=O)C2CC(O)CN2C(=O)OC(C)(C)C)c1` (stereo not drawn) as the compound, how does the “hERG current change (%, negative = inhibition) at 1uM” value read?
**A.** Its value is 17.2%.

**Q.** For `Cc1ccc(-n2c(SCC(=O)NC3CCS(=O)(=O)C3)nc3ccccc3c2=O)cc1C` (stereo not drawn), which “hERG current change (%, negative = inhibition) at 1uM” value is on record?
**A.** The value was 4.65%.

**Q.** Which “hERG current change (%, negative = inhibition) at 1uM” value does the source give for `CCN1CCN(c2ncnc3sc(C(=O)Nc4ccccc4F)c(C)c23)CC1` here?
**A.** The value was -50.9%.

**Q.** How did the “hERG current change (%, negative = inhibition) at 1uM” value turn out when `O=C(CSc1nnc2n1CCCN2)c1ccc([N+](=O)[O-])cc1` was run?
**A.** The value was 5.45%.

**Q.** With `CS(=O)(=O)N1CCN(c2ccc(NC(=O)CSc3nnc(-c4ccco4)o3)cc2)CC1` as the compound, how does the “hERG current change (%, negative = inhibition) at 1uM” value read?
**A.** Its value is 24.4%.

**Q.** Which “hERG current change (%, negative = inhibition) at 1uM” value does the source give for `CCN1C(=O)c2ccccc2Sc2ccc(C(=O)NCCCN(CC(C)C)CC(C)C)cc21` here?
**A.** Its value is 3.09%.

**Q.** With `Cn1c(N)c(C(=O)Nc2ccccc2F)sc1=S` as the compound, how does the “hERG current change (%, negative = inhibition) at 1uM” value read?
**A.** The value was 8.11%.

**Q.** `CC1(c2ccccc2Cl)NC(=O)N(CC(=O)N2CCN(S(=O)(=O)c3ccccc3)CC2)C1=O` (stereo not drawn) was tested. Which “hERG current change (%, negative = inhibition) at 1uM” value did it give?
**A.** Its value is 10.9%.

**Q.** How did the “hERG current change (%, negative = inhibition) at 1uM” value turn out when `COCC(C)n1c(SCC(=O)N2CCCCC2)nc2ccccc2c1=O` (stereo not drawn) was run?
**A.** Its value is -2.67%.

**Q.** With `COCC(C)n1c(C)cc(C(=O)CN2C(=O)NC3(CCCCC3C)C2=O)c1C` (stereo not drawn) as the compound, how does the “hERG current change (%, negative = inhibition) at 1uM” value read?
**A.** Its value is 16.2%.

**Q.** Which “hERG current change (%, negative = inhibition) at 1uM” value does the source give for `O=C(O)C1CCCCC1C(=O)Nc1ccc(F)c(F)c1` (stereo not drawn) here?
**A.** Its value is 5.66%.

**Q.** How did the “hERG current change (%, negative = inhibition) at 1uM” value turn out when `Cc1ccccc1S(=O)(=O)Cc1ccc(C(=O)N2CCN(C3CCCCC3)CC2)o1` was run?
**A.** Its value is -15.4%.
